# From the supplement of paper PMC11417369
# ± gives the standard deviation of the averaged measurements. The list shows a part of the results.
# Tested on: PfAP2-G AP2 domain (GST-tagged)
# Assay: gcPBM binding intensity (ln(normalized median fluorescence intensity)); higher = stronger DNA binding
# Procedure, shortened: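 Binding intensity is defined as the maximum Masliner-normalised natural-log median intensity across replicate spots for either probe orientation. It was measured on an Agilent 4 × 180k array of primer-extended double-stranded 36-bp intergenic genomic probes and negative controls, to which GST-tagged P. falciparum DNA-binding domains made in E. coli were applied for 1 h in 1× PBS with 1% milk, 0.2 mg/ml BSA, 0.5% salmon testes DNA and 0.03% Triton X-100. Detection was by Alexa488 anti-GST antibody and scanning at 488 nm.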
row,Sequence,gcPBM binding intensity (ln)
1,CTCATAAAAATAACGTTAACATAAATTTATTGTGAT [XGTACX_negctrl_site169],9.905 ± 0.092
2,AAGGACACCTTCAAAACACACATACAAATAAATAGA [CACACA_site5771],10.22 ± 0.042
3,TATTCTGGTGTAAATGCACACAGAAGAAGAAAAAAA [CACACA_site9225],10.1 ± 0.26
4,TGTAGTCTGGAGAAAAGTACACAGTATCTGGTAACA [XGTACX_site2010],11.4 ± 0.89
5,AGTTTTATAAAAATATGTACTTATATACACATGTAT [XGTACX_site4022],11.2 ± 0.67
6,TATGGCAAAACATTCACACATATTTATATATGTGTA [CACACA_site5588],9.8 ± 0.099
7,TTCTGTTGGAATATATGTACATAATAAAAAAAAATA [XGTACX_site1741],11.3 ± 0.74
8,TTTTTTTTTTTTGTAATACACACCACTATATGTTAT [CACACA_site1844],10.1 ± 0.49
9,ATATAATTAAAAACATGTACATATATATATATATAT [XGTACX_site2882],11.3 ± 0.83
10,CATAAATGTATATAAACATGCAAGGACAGACTTTTA [TGCATGCA_site900],11 ± 0.57
11,TTGATATGTACAGGCACACATAAATTTCACAAATAT [CACACA_site3999],11.2 ± 0.84
12,CTTTAGTTTTTAATGTGTACTGAATTTGAATAGTAG [XGTACX_site7920],11.2 ± 0.72
13,CGTATTATTTTATAAACACACAAGGGGGCATGTATA [CACACA_site6489],11.2 ± 0.81
14,GAATATTAAACAAACACACACACATATATTTATATA [CACACA_site7563],9.92 ± 0.014
15,AATGGATTGATAAGTGGTACACACATATATATTATA [XGTACX_site6086],11.4 ± 0.83
16,TATATAATATATATGACACACATATTTATATAAATA [CACACA_site4054],10 ± 0.26
17,TACATACAGATATATACACACATATATAATATATAT [CACACA_site4376],10 ± 0.18
18,TACATACCTATATACACATGCATATTTACATATATT [TGCATGCA_site206],10.12 ± 0.021
19,AAAATTAAATTATAAGCACACACATATATATATATA [CACACA_site9105],10.2 ± 0.55
20,GTAAAAATACAAAAGGTGCTCAAACAATATAATACA,10.04 ± 0.078
21,GTACATTGTAAGGATGGAAAAGCTAAACATTATAAT [XGTACX_negctrl_site339],10.8 ± 0.3
22,ATATTTTTAACCAAGGACACAATTCTTGTATTGTTA [CACACA_negctrl_site1326],10.6 ± 0.4

row,Sequence,gcPBM binding intensity (ln)
1,AAAAGATTAAGTAGAATAATGTTCTTTCCCAACATA [GTGCAC_negctrl_site223],9.72 ± 0.028
2,ATACCAAATGAATAATGTACATACGAACATACATAT [XGTACX_site1301],11.1 ± 0.64
3,AAGGGTTATAAAAATTGTACTTTTTTTATTTTTTTT [XGTACX_site1313],11.4 ± 0.76
4,ATATATTTATATAGGTGTACATATTTTGCTATTCAA [XGTACX_site5199],11.6 ± 0.77
5,TAAGTCGTTATAAGCACACACATAAATAAAAATAAA [CACACA_site1574],10.3 ± 0.41
6,CAACCTCATAATATTTAACACACAAAATTATATGTA [CACACA_site8496],9.68 ± 0.13
7,TTATCTTAATTGTGATTATAAAGATATTCTTTCTAT [GTGCAC_negctrl_site410],9.51 ± 0.014
8,CATTTAGAATAAGGCACACATAAAGAACACTTTCCA [CACACA_site130],10.21 ± 0.049
9,AAATAAGAAAATCATAGTACATAGGAATAGAAGAAC [XGTACX_site3135],10.8 ± 0.42
10,AGTATACGCAAACACACACACACAAAAAAAAAAAAA [CACACA_site426],10.1 ± 0.43
11,TATTATATTTATATTTGTACTTAAAATATTATACAC [XGTACX_site2881],11.3 ± 0.9
12,TACGTTCTGATATATACACACCTGGTATTAATTATG [CACACA_site7113],10.19 ± 0.099
13,AGAAAAATTATATATACACACTTATATTTATATATA [CACACA_site5555],9.79 ± 0.071
14,TTTTTTTTTTTAAATTGTACTTATTTTATATTATAT [XGTACX_site1077],11.4 ± 0.9
15,AATTTCCCATATTACACACATACTATGATATATAAA [CACACA_site3834],10.02 ± 0.035
16,CAATAAACCATTTTTTGTACATAAAAATAGGTATTG [XGTACX_site1892],11 ± 0.59
17,TAAATATGTATAAATTGTACAAAATATATGAATAGT [XGTACX_site5659],10.8 ± 0.37
18,AATGTCATGATACATACACACACATACACATACACA [CACACA_site8665],10.1 ± 0.11
19,ATATCTTATTTTCCTTGTACTTATTTCATAATTACA [XGTACX_site3894],11.4 ± 0.81
20,TATTAAATATTGTAATGTACATATATAATATAATAT [XGTACX_site1809],11.1 ± 0.61
21,AAAGAGAAATTTAAATGTACATTTGTTCTAAGTGTA [XGTACX_site3602],10.9 ± 0.49
22,AATTATGAAAAATCAAGTACAAACAAAATCATAATT [XGTACX_site5665],11.1 ± 0.73
